From PubChem BioAssay AID1963981 (Molecular Pharmacology Branch, DTP, NCI, 2024)
The source holds more than one record for some entries. This list holds those alone. There may be further records. Values that stand side by side are repeats in other runs, samples, wells, individuals or studies.

Tested on: 354836-022-R-J1-PDC multicell spheroid viability
Test: Anticancer human tumor 354836-022-R-J1-PDC patient-derived head and neck squamous cell carcinoma cell line growth inhibition [PI3K]
Details: for viability, T/C: stronger effect = lower value
Excerpt: Combinatorial screen of targeted agents with the PI3K inhibitors inavolisib, alpelisib, duvelisib, and copanlisib in multi-cell type tumor spheroids
A high-throughput screen of multi-cell type tumor spheroids was designed to identify active combinations of targeted small molecules and PI3K pathway inhibitors. Complex spheroids include a stromal component modeled by human endothelial cells (HUVEC) and fibroblasts modeled by human mesenchymal stem cells (MSCs). The concentration ranges selected for each drug and investigational agent were based upon clinically achievable concentrations if the clinical Cmax of the agent was known.
Compounds. The drugs and investigational agents: inavolisib (NSC800729), alpelisib (NSC765974), duvelisib (NSC772469), copanlisib (NSC816437), ipatasertib (NSC767898), afuresertib (NSC778305), talazoparib (NSC767125), sapanisertib (NSC764658), selumetinib (NSC741078), tovorafenib (DAY101, NSC766906), vemurafenib (NSC761431), ravoxertinib (NSC781343), sotorasib (NSC818433), MRTX1133 (NSC 836407), abemaciclib (NSC 768073), palbociclib (NSC758247), venetoclax (NSC 766270), SY5609 (NSC837396), enzalutamide (NSC755605), and darolutamide (NSC825331), were obtained from the National Cancer Institute (NCI) Developmental Therapeutics Program Chemical Repository. The FDA-approved anticancer drug set is available from the NCI Developmental Therapeutics Program. […] The stock solutions were prepared in dimethyl sulfoxide (DMSO, Sigma-Aldrich, St. Louis, MO, cat. D2650) at 800-fold the tested concentration and stored at -70 degrees C prior to their use. All drugs and investigational agents were tested over a range starting from a high concentration at or near the clinical Cmax and decreasing in half-log increments. If the clinical Cmax for an agent had not been determined, the highest concentration tested was 10 microM.
Cell Culture. All cells were maintained in an incubator at 37 degrees C and 5% CO2 with 95% humidity. The PDC lines were cultured according to standard operating procedures established by the NCI PDMR (https://pdmr.cancer.gov/sops/default.htm). All PDCs were thawed and cultured in Matrigel-coated flasks prepared with a working solution of 1X Ham's F-12 nutrient mix, without supplementation (Invitrogen, Waltham, MA, cat. 11765054), 100 U/mL penicillin-streptomycin (Invitrogen, cat. 15140122), and 2.5% Matrigel (Corning Inc., Corning, NY, cat. 354248) for the first three passages. The 354836-022-R-J1-PDC, 475296-252-R-J1-PDC, and 997726-040-R-J2-PDC lines were cultured in 6A media, which includes advanced DMEM/F-12 (Thermo Fisher Scientific, cat. 12634028), 10 mM HEPES (Thermo Fisher Scientific, cat. 15630080), 1X GlutaMAX supplement (Thermo Fisher Scientific, cat. 35050061), 0.1 mg/mL primocin (InvivoGen, San Diego, CA, cat. ant-pm-2), 10% defined fetal bovine serum, heat inactivated (HyClone Laboratories Inc., Logan, UT, cat. SH30070.03HI), 50% L-WRN conditioned media (ATCC, cat. CRL-3276), 1.25 mM N-Acetyl-L-cysteine (Sigma-Aldrich, cat. A9165), 10 mM nicotinamide (Sigma-Aldrich, cat. N0636), 1X B-27 supplement (Thermo Fisher Scientific, cat. 17504044), 1X N-2 supplement (Thermo Fisher Scientific, cat. 17502048), and 10 microM Y-27632 dihydrochloride (Tocris Bioscience, Bristol, United Kingdom, cat. 1254). The 624824-186-R-J2-PDC line was cultured in 6C/Colon 1B media, which includes all 6A media components plus 50 ng/mL human EGF recombinant protein (Thermo Fisher Scientific, cat. PHG0311). […]
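Note: spheroids exposed to agents for seven days before the viability read.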

CC1(C)CCC(CN2CCN(c3ccc(C(=O)NS(=O)(=O)c4ccc(NCC5CCOCC5)c([N+](=O)[O-])c4)c(Oc4cnc5[nH]ccc5c4)c3)CC2)=C(c2ccc(Cl)cc2)C1
IC50 (compound alone): 4.1 µM, 3.89 µM, > 10 µM, 4.33 µM
viability, T/C (compound alone 0.1 µM): 95, 89.5, 78.8, 108%
viability, T/C (compound alone 10 µM): 3.32, 12.6, 105, 3.61%

CCCS(=O)(=O)Nc1ccc(F)c(C(=O)c2c[nH]c3ncc(-c4ccc(Cl)cc4)cc23)c1F
viability, T/C (compound alone 0.0316 µM): 91.8, 108, 85.7, 80.9%

CCN1CCN(Cc2ccc(Nc3ncc(F)c(-c4cc(F)c5nc(C)n(C(C)C)c5c4)n3)nc2)CC1
viability, T/C (compound alone 1 µM): 72.7, 70.2, 59.1, 43%

C=CC(=O)N1CCN(c2nc(=O)n(-c3c(C)ccnc3C(C)C)c3nc(-c4c(O)cccc4F)c(F)cc23)C(C)C1 (centres undefined)
viability, T/C (compound alone 1 µM): 87.4, 94.9, 101, 114%
viability, T/C (compound alone 3.16 µM): 97.4, 110, 121, 90.8%

Cc1nc(NC(=O)N2CCCC2C(N)=O)sc1-c1ccnc(C(C)(C)C(F)(F)F)c1 (centres undefined)
viability, T/C (compound alone 0.316 µM): 84.3, 94.2, 95.9, 87.6, 95.8, 86.7, 83, 110%

C#Cc1c(F)ccc2cc(O)cc(-c3ncc4c(N5CC6CCC(C5)N6)nc(OCC56CCCN5CC(F)C6)nc4c3F)c12 (centres undefined)
viability, T/C (compound alone 0.316 µM): 92, 90, 109, 121%
